# Reference: PubChem BioAssay AID2101 (National Center for Advancing Translational Sciences (NCATS), 2009)
# In all, about 330,000 compounds went through this assay and about 300 (0.091%) were called active. This list was built around the results that the source calls inconclusive (neither active nor inactive); the mix of calls is not that of the screen. Calls come from the whole dose curve; as a rule, active = well fitted inhibition curve with a large enough effect; inconclusive = small, poorly fitted or top-dose-only effect, or effect the other way, or another doubt; inactive = no such curve, though single readings can be large or run the other way. No potency is given beside an inconclusive call; the fits are too rough.
# Molecular target: Lysosomal acid glucosylceramidase (Homo sapiens) (UniProt P04062)
# Experiment: qHTS Assay for Inhibitors and Activators of N370S glucocerebrosidase as a Potential Chaperone Treatment of Gaucher Disease
# Conditions: N370S GC spleen homogenate, 4MU-glucoside fluorescence; series mostly up to 59.4 µM
# Potency is the fitted concentration of half-maximal effect.
row,Compound,Potency
1,CC(C)(C)c1ccc(S(=O)(=O)CCc2ccccn2)cc1,inactive
2,COCCn1c(=O)[nH]c2cc(C(=O)NCC3CCCO3)ccc2c1=O (stereo unspecified),"inconclusive [inhibitor, full curve, poor fit]"
3,COc1ccc(C2/C=C\CN(C(=O)C3CCCC3)CC(=O)N2Cc2ccc(F)cc2)cc1 (stereo unspecified),inactive
4,Cc1sc(NC(=O)C2C3CCC(C3)C2C(=O)O)c(C(N)=O)c1-c1ccc(C(C)(C)C)cc1 (stereo unspecified),"inconclusive [activator, single point]"
5,COc1ccc(-c2cc3nc(-c4ccccc4)cc(N4CCCC(O)C4)n3n2)cc1 (stereo unspecified),"inconclusive [activator, single point]"
6,O=C(NCCCN1CCOCC1)c1ccc2c(c1)N(Cc1ccccc1)C(=O)c1ccccc1S2,"inconclusive [inhibitor, partial curve]"
7,Cc1ccccc1C(O)c1ccccn1 (stereo unspecified),"inconclusive [inhibitor, single point]"
8,Cc1cc(Oc2nc3ccccn3c(=O)c2/C=C(\C#N)C(=O)NC2CCS(=O)(=O)C2)ccc1Cl (stereo unspecified),"inconclusive [activator, partial curve]"
9,CS(=O)(=O)Nc1ccc(C2=NN(C(=O)CCCC(=O)O)C(c3cccs3)C2)cc1 (stereo unspecified),"inconclusive [activator, partial curve]"
10,O=C(Nc1ccccc1N1CCCCC1)c1ccccc1F,inactive
11,CCCOc1c(OC)cccc1C1CC(=O)Nc2cc3c(cc21)OCO3 (stereo unspecified),"inconclusive [activator, single point]"
12,COc1cccc(N2CC(O)=C(c3nc4ccccc4c(=O)[nH]3)C2=N)c1,"inconclusive [activator, partial curve]"
13,COc1ccc(-c2cc(C(F)(F)F)nc(SCC(=O)Nc3sc4c(c3C#N)CCC4)n2)cc1,inactive
14,O=C(NNC(=S)Nc1ccccc1)c1cccs1,"inconclusive [inhibitor, full curve, poor fit]"
15,CCC(=O)c1ccc(N2CCN(C(=O)c3cc([N+](=O)[O-])ccc3F)CC2)c(F)c1,"inconclusive [inhibitor, partial curve]"
16,Cc1cc(OCc2cc(C(=O)N(C)CCCN3CCOCC3)no2)cc(C)c1Cl,"inconclusive [inhibitor, single point]"
17,O=[N+]([O-])c1cccc(CN2C(COCc3ccccc3)CCC=CS2(=O)=O)c1 (stereo unspecified),inactive
18,CC1=NN(C(C)C)C(=O)C1,"inconclusive [inhibitor, single point]"
19,Cc1ccccc1-c1n[nH]c(=S)n1/N=C/C=C/c1ccco1,inactive
20,C#CCOCCOCCOCCNc1nc(N2CCN(C(=O)CCCCCCCCCCNC(=O)[C@H](CCCCN)n3cc(C[C@@H](C)CC)nn3)CC2)nc(N2CCN(C(=O)CCCCCCCCCCNC(=O)[C@@H]([C@H](C)O)n3cc(C)nn3)CC2)n1,active: 11.2 µM
21,COc1ccc(C)cc1NC(=O)CN(Cc1nnc(-c2ccc(Cl)cc2)o1)C1CCCC1,"inconclusive [activator, partial curve]"

row,Compound,Potency
1,Cc1c2c(n3c(nc4ccccc43)c1C#N)N(CCCN(C)C)CC2,"inconclusive [activator, partial curve]"
2,O=C(CCCCCN1C(=O)c2cccc3cccc(c23)C1=O)NCCCO,"inconclusive [activator, single point]"
3,O=C(COC(=O)c1ccccc1C(=O)c1ccccc1)Nc1ccc(SC(F)F)cc1,"inconclusive [activator, partial curve]"
4,C[C@H](NC(=O)c1cc2c([nH]c3ccccc32)c(-c2ccccc2)n1)C(=O)O,"inconclusive [activator, single point]"
5,O=C(COc1ccc(Cl)cc1[N+](=O)[O-])NC1CCCCC1,"inconclusive [activator, partial curve]"
6,Cc1c(CCOC(=O)c2cc([N+](=O)[O-])cc([N+](=O)[O-])c2)sc[n+]1CC(=O)c1ccc(Br)cc1,"inconclusive [inhibitor, single point]"
7,Nc1c2nc(-c3ccccc3)[nH]c(=O)c2nc(=O)n1-c1ccccc1,"inconclusive [activator, single point]"
8,CCC1Sc2ccc(S(=O)(=O)CCC(=O)Nc3ccccc3Br)cc2NC1=O (stereo unspecified),"inconclusive [inhibitor, single point]"
9,CCc1ccc(NC2=NCC(c3ccccc3)S2)cc1 (stereo unspecified),inactive
10,O=C(CN1C(=O)/C(=C/c2cccc(Br)c2)SC1=S)NCCCN1CCOCC1,"inconclusive [inhibitor, single point]"
11,CCOc1ccc(CNC(=O)CCC(=O)n2nc(C)c3ccccc32)cc1,"inconclusive [inhibitor, partial curve]"
12,COc1ccc(S(=O)(=O)Nc2nc3n(n2)C(c2ccc(Cl)cc2)CC(=O)N3)cc1 (stereo unspecified),"inconclusive [inhibitor, single point]"
13,CCOCCCNc1nc(-c2ccccc2)nc2ccccc12,"inconclusive [inhibitor, partial curve]"
14,COc1ccc(C(CNC(=O)c2ccc(NS(=O)(=O)c3ccccc3)cc2)N2CCOCC2)cc1 (stereo unspecified),"inconclusive [inhibitor, partial curve]"
15,CC(C)OCCOc1ccc2oc(-c3ccco3)cc(=O)c2c1,"inconclusive [activator, partial curve]"
16,Cc1cccn2c(=O)c3cc(C(=O)NCc4ccco4)c(=N)n(C(C)C)c3nc12,"inconclusive [activator, partial curve]"
17,CNc1cc(CSc2ccc(Cl)cc2)nc(C)n1,inactive
18,O=C1NC2(CCCCCC2)C(=O)N1Cc1c(F)cccc1Cl,"inconclusive [inhibitor, full curve, poor fit]"
19,C=CCOC(=O)Nc1c(C(=O)OC)[nH]c2ccccc12,inactive
20,CC(C)(CO)Nc1nc(N2CCCC2)nc(N2CCCC2)n1,"inconclusive [inhibitor, single point]"
